Source: PubChem BioAssay AID485294 (National Center for Advancing Translational Sciences (NCATS), 2010)
Among all 370,000 compounds or so, about 150 (0.041%) were called active. This list was built around the results that the source calls inconclusive (neither active nor inactive); the mix of calls is not that of the screen. Calls follow the shape of the dose curve; as a rule, active = well fitted inhibition curve with a large enough effect; inconclusive = small, poorly fitted or top-dose-only effect; inactive = flat fitted curve, though single readings scatter. No potency is given beside an inconclusive call; the fits are too rough.

Target: Beta-lactamase (Escherichia coli (strain K12)) (UniProt P00811)
UniProt P00811, sequence (P00811 whole entry, looked up): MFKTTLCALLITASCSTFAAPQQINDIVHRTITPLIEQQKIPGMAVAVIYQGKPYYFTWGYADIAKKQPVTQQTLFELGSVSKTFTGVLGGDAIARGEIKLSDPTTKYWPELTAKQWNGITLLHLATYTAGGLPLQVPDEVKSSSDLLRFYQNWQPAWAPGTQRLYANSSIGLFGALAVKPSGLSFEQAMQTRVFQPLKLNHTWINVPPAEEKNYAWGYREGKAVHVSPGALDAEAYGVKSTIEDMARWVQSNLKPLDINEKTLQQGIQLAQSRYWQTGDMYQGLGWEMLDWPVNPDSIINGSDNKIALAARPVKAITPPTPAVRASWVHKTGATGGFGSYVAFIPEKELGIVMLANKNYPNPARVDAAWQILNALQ
Assay: qHTS Inhibitors of AmpC Beta-Lactamase (assay with detergent); also: nearly all actives have a fitted effect of over 25% in size
Settings: AmpC hydrolysis of nitrocefin, absorbance 480 nm, 0.01% Triton; series mostly up to 114 µM
Procedure, shortened: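 AmpC (5.3 nM in the dispensed reagent) in 20 mM phosphate pH 7.0 with 0.01% (detergent screen) or 0.0001% Triton X-100 was preincubated with compounds for 15 min at room temperature. Nitrocefin was then added from an 800 uM solution, and hydrolysis was followed at 480 nm.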
Potency is read from the fitted curve at half-maximal effect; tags tell the direction and shape of the fitted curve.

| Structure (SMILES) | Potency |
| --- | --- |
| C/C(CC(=O)N(C(C)C)C(C)C)=N\NC(=O)COc1ccc(Cl)cc1Cl | inactive |
| CC(O)CC(C)O (stereo not given) | inactive |
| COc1cccc2c(=O)n(CC(=O)NC3CCCCC3)ccc12 | inconclusive [inhibitor, full curve, poor fit] |
| O=C(NC1CC2CCCC(C1)N2C(=O)NCc1ccccc1)C1CC1 (stereo not given) | inconclusive [inhibitor, partial curve, poor fit] |
| Cc1nccn1CCOc1ccc(Cl)cc1 | inconclusive [inhibitor, full curve, poor fit] |
| COc1ccc(C(=O)CC2OC(=O)c3ccccc32)cc1OC (stereo not given) | inconclusive [inhibitor, single point] |
| CCCc1ccc(OCC(O)CN2CCCC2)cc1 (stereo not given) | inconclusive [inhibitor, single point] |
| O=C(CCC(=O)Nc1ccc(F)cc1)N/N=C/c1cccnc1 | inconclusive [inhibitor, full curve, poor fit] |
| Cc1ccc(C(C)C)cc1OCC(=O)NC1CCCCCCC1 | inconclusive [inhibitor, full curve, poor fit] |
| CCOC(=O)c1ccc(NC(=S)NNC(=O)COC)cc1 | inconclusive [inhibitor, single point] |
| COc1ccc(/C=N/Nc2ncnc3sc4c(c23)CCCC4)cc1OC | inconclusive [inhibitor, partial curve, poor fit] |
| Cc1ccc(C)c(OCc2nnc(SCC(=O)NC(=O)NCc3ccco3)o2)c1 | inconclusive [inhibitor, full curve, poor fit] |
| O=C(COC(=O)c1cccc(Br)c1)NC(=O)NC1CCCC1 | inconclusive [inhibitor, partial curve, poor fit] |
| O=C(CN1C(=O)C2C3C=CC(C3)C2C1=O)NCC1COc2ccccc2O1 (stereo not given) | inconclusive [inhibitor, full curve, poor fit] |
| COC(=O)C1=Nc2ccccc2/C1=C\c1c(O)n(-c2ccc(Br)cc2)c(=O)[nH]c1=O | inconclusive [inhibitor, full curve, poor fit] |
| CC(Cl)C(=O)N1c2ccccc2CCc2ccccc21 (stereo not given) | inconclusive [inhibitor, full curve, poor fit] |
| CCOC(=O)c1c(NC(=O)CSc2cn(CCNC(=O)c3ccccc3F)c3ccccc23)sc2c1CCCC2 | inactive |
| CCC(=O)Nc1ccc(NC(=O)Cc2ccccc2)cn1 | inconclusive [inhibitor, partial curve, poor fit] |
| O=C(CN1CCN(S(=O)(=O)c2ccccc2)CC1)Nc1ccnn1C1CCCC1 | inactive |
| Cc1ccsc1/C=C1\SC(N)=NC1=O | inconclusive [inhibitor, full curve, poor fit] |
| COc1ccc(/C=N/NC(=S)Nc2ccccc2)cc1COc1ccc(F)cc1F | inactive |
| Cc1ccccc1OCC(=O)NN1CCN(C)CC1 | inconclusive [inhibitor, full curve, poor fit] |
| CC(=O)c1c(C)[nH]c(C(=O)NC2CCCCC2)c1C | inconclusive [inhibitor, partial curve, poor fit] |
| Nc1nc(COC(=O)C2CCN(C(=O)c3ccc(Cl)cc3)CC2)nc(Nc2ccccc2)n1 | inconclusive [inhibitor, partial curve, poor fit] |

| Structure (SMILES) | Potency |
| --- | --- |
| O=C(NC1CCCC1)c1ccc([N+](=O)[O-])s1 | inconclusive [inhibitor, full curve, poor fit] |
| CC(C)c1ccc(OCc2cc(=O)n3c(-c4ccccc4)csc3n2)cc1 | inactive |
| N#Cc1ccc(NC(=O)C2CC(c3ccc(F)cc3)=NO2)cc1 (stereo not given) | inconclusive [inhibitor, single point] |
| COc1ccc(C(=O)Nc2ccc(NC(=O)Cc3ccccc3)cn2)cc1 | inactive |
| CN(C)S(=O)(=O)c1ccc(N2CCCC2)c(C(=O)OCC(=O)NC2CCCCC2)c1 | inconclusive [inhibitor, full curve, poor fit] |
| COc1ccc(C2=NOC(C(=O)Nc3ccc4c(c3)OCCO4)C2)cc1OC (stereo not given) | inactive |
| O=C(NCC1CCCCC1)C1CCN(C(=O)NC2CCCCC2)CC1 | inconclusive [inhibitor, full curve] |
| CCOC(=O)c1ccc(NC(=O)c2nn(C)c3c2COc2ccccc2-3)cc1 | inactive |
| CCCOC(=S)Nc1ccccc1 | inconclusive [inhibitor, single point] |
| CC(C)c1ccc(S(=O)(=O)N2CCN(CC(=O)c3ccc(O)c(O)c3)CC2)cc1 | inconclusive [inhibitor, full curve, poor fit] |
| CCOC(=O)C(Cc1ccccc1)C(=O)Nc1cccc(C)c1 (stereo not given) | inconclusive [inhibitor, single point] |
| Cc1cc(C)n(CCOc2nonc2N)n1 | inconclusive [inhibitor, single point] |
| CCc1ccc(S(=O)(=O)c2nnn(-c3cccc(C)c3)c2N)cc1 | inactive |
| COc1ccc(OCCC(=O)OCC(=O)Nc2cccc(S(=O)(=O)N3CCOCC3)c2)cc1 | inactive |
| CCc1nc(Nc2ccc3c(c2)OCO3)c2oc3ccccc3c2n1 | inactive |
| CCOC(=O)c1cc(C(=O)OCC)c2cccc(C)n2c1=O | inconclusive [inhibitor, full curve, poor fit] |
| COC(=O)C1=C(N)Oc2cc(C)n(CCCn3ccnc3)c(=O)c2C1c1ccc(Cl)cc1 (stereo not given) | inconclusive [inhibitor, full curve, poor fit] |
| COc1ccc(OCC(O)Cn2c(Nc3cccc(C)c3)nc3c2c(=O)n(C)c(=O)n3C)cc1 (stereo not given) | inconclusive [inhibitor, full curve] |
| O=C(NCCc1ccccc1)C1COc2ccccc2O1 (stereo not given) | inactive |
| COC(=O)c1[nH]c2ccc(C)cc2c1NC(=O)Nc1ccccc1OC | inconclusive [inhibitor, full curve] |
| CCOC(=O)c1oc2ccccc2c1NC(=O)c1ccc(Cl)s1 | inconclusive [inhibitor, partial curve] |
| CCOc1ccc(OC(=O)C(CCS(C)(=O)=O)N2C(=O)c3ccccc3C2=O)cc1 (stereo not given) | inconclusive [inhibitor, full curve, poor fit] |
| CCCCC/C=C\C/C=C\C/C=C\CCCCC(=O)O | inconclusive [inhibitor, full curve] |
| CC1CCN(C(=O)Cn2c3ccc(F)cc3c3nc4n(c(=O)c32)CCCS4)CC1 | inactive |

| Structure (SMILES) | Potency |
| --- | --- |
| Cc1cccc(OCC(=O)Nc2ccc3nc(Nc4cccc(Cl)c4)cc(C)c3c2)c1 | inactive |
| CC(C)CN1CCNC(=O)C1CC(=O)NCCCN1CCCc2ccccc21 (stereo not given) | inactive |
| Cc1cc(C)n2nc(S(=O)(=O)N(C)Cc3ccccc3)nc2n1 | inconclusive [inhibitor, full curve] |
| CCn1c(CNC(=O)c2cccc(C)c2)nc2ccccc21 | inactive |
| COc1ccc(NC(C)=O)cc1NC(=O)C1CCCN1C(=O)c1cccs1 (stereo not given) | inconclusive [inhibitor, full curve] |
| Oc1ccc(Br)cc1CNc1nccs1 | inconclusive [inhibitor, partial curve, poor fit] |
| CN(CCc1ccccn1)C(=S)Nc1ccc(Cl)cc1Cl | inconclusive [inhibitor, single point] |
| O=S(=O)(c1ccc(Br)c2ccccc12)N1CCOCC1 | inconclusive [inhibitor, full curve, poor fit] |
| O=C1/C(=C/c2cccs2)SC(=S)N1CC(=O)N1CCCCC1CCO (stereo not given) | inactive |
| COc1ccc(C(C)=O)cc1COc1ccc([N+](=O)[O-])c(C)c1 | inconclusive [inhibitor, single point] |
| COc1ccc(CCC(=O)NCc2ccc3c(c2)CCN3C(=O)c2ccc(C)cc2)cc1 | inactive |
| O=C(CSc1nnc(-c2ccncc2)n1CCc1ccccc1)N1CCCC1 | inconclusive [inhibitor, single point] |
| Cc1cnc(NC(=O)CCc2ccccc2)s1 | inconclusive [inhibitor, partial curve, poor fit] |
| O=S(=O)(c1cnccc1N1CCN(/N=C/c2ccc(Cl)cc2)CC1)N1CCCCC1 | inconclusive [inhibitor, single point] |
| Cc1cc(-n2cnnn2)ccc1C(C)C | inconclusive [inhibitor, partial curve, poor fit] |
| Cc1ccc(S(=O)(=O)N2CCC(C(=O)NC3CC3)CC2)cc1 | inconclusive [inhibitor, partial curve, poor fit] |
| N#Cc1c2c(c(=S)n(-c3ccccc3)c1N)CCCC2 | inconclusive [inhibitor, full curve, poor fit] |
| COc1ccccc1Nc1ncnc2c1nc1n2CCCC1 | inactive |
| Cc1cc(C)n(C(=O)c2ccc(NC(=O)C3CC3)cc2)n1 | inconclusive [inhibitor, full curve] |
| Cc1ccc2oc(=O)c3cc(C(=O)NCCN4CCN(C)CC4)sc3c2c1 | inconclusive [inhibitor, full curve, poor fit] |
| C/C(=N\NC(=O)c1c(Br)c(C)nn1C)c1ccc(NC(=O)c2ccoc2C)cc1 | inactive |
| COc1cccc(C(=O)N2CCN=C2SC)c1 | inconclusive [inhibitor, full curve, poor fit] |
